According to PubChem BioAssay (NCATS):
The inconclusive results got no clear call from the source; some entries with a clear call stand among them for comparison. No potency is given beside an inconclusive call; the fits are too rough. The source made the active and inactive calls. Calls follow the shape of the dose curve; as a rule, active = well fitted curve in either direction with a large enough effect (not every such curve was filed as active); inconclusive = small, poorly fitted or top-dose-only effect, or another doubt; inactive = flat fitted curve, though single readings scatter.

target: Mitogen-activated protein kinase 10 (Mus musculus) (UniProt Q61831); experiment: JNK3 AlphaScreen Assay (AID 530); conditions: JNK3 lysate, c-Jun phosphorylation; series mostly up to 57.1 µM;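 also: kinase came from lysate of stimulated human HepG2 cells; signal reports phosphorylation of biotinylated GST-cJun 1-79 at Ser73 with 10 µM ATP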
In short: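 Room-temperature AlphaScreen kinase assay; pre-activated HepG2 lysate as JNK3 source, biotin-GST-cJun(1-79) substrate, 10 uM ATP, compound 15 min preincubation.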
Potency is read from the fitted curve at half-maximal effect; tags tell the direction and shape of the fitted curve.

Structure (SMILES)	Potency
CCCCOC(=O)COc1ccc(Cl)cc1Cl	inconclusive [activator, partial curve]
c1ccc(-c2ccc(N3CC4(CCNCC4)C3)cc2)cc1	inconclusive [inhibitor, partial curve]
CC(C)S	inconclusive [activator, full curve, poor fit]
COC(=O)[C@@]1(Cc2ccc(OC)cc2)[C@H]2c3cc(C(=O)N(C)C)n(Cc4ccsc4Br)c3C[C@H]2CN1C(=O)c1ccccc1	inconclusive [inhibitor, single point]
O=C=Nc1ccc(Cc2ccc(N=C=O)cc2)cc1	inconclusive [activator, full curve, poor fit]
CCc1cccc2c(-c3ccccc3)c3c(nc12)OCC3	inconclusive [activator, single point]
O=c1cc(-c2ccccc2)oc2cc(O[C@H]3O[C@H](CO)[C@@H](O)[C@H](O)[C@@H]3O)c(O)c(O)c12	inconclusive [inhibitor, single point]
COC(=O)[C@@]1(Cc2ccccc2)[C@@H]2C(=CC(=O)[C@H]2CC(=O)C(=O)N(C)C)CN1C(=O)c1ccccc1	inconclusive [inhibitor, partial curve]
c1c[nH]cn1	inconclusive [activator, full curve, poor fit]
CC(=O)O[C@H](CC(=O)O)C[N+](C)(C)C	inactive
Cc1ccc2ccccc2c1[N+](=O)[O-]	inactive
CCCCCCN	inconclusive [activator, full curve, poor fit]
Cc1ccc(Cl)cc1	inactive
CCCCOCCO	inconclusive [activator, full curve, poor fit]
O=c1cc(-c2ccccc2)oc2c1ccc1ccccc12	inconclusive [inhibitor, partial curve]
c1ccc2c(c1)ccc1cc3c(ccc4ccccc43)cc12	inconclusive [activator, partial curve, poor fit]

Structure (SMILES)	Potency
CN(CC(=O)O)Cc1c[nH]c2ccccc12	inconclusive [activator, single point]
CCCCNCC	inconclusive [activator, full curve, poor fit]
CCCCCCc1ccc(-c2ccc(C#N)cc2)cc1	inconclusive [activator, partial curve]
Cc1ccc2ccc3cccc4ccc1c2c34	inconclusive [activator, partial curve]
CC(=O)Nc1ccc(N)cc1	inactive
COC(=O)[C@@]1(Cc2ccc(OC)cc2)[C@H]2c3cc(C(=O)N(C)C)n(Cc4ccc(S(C)(=O)=O)cc4)c3C[C@H]2CN1C(=O)c1ccccc1	inactive
O=C(O)Cc1[nH]cnc1C(=O)O	inconclusive [activator, partial curve]
CCCCCCCCC1CO1 (configuration not stated)	inconclusive [activator, full curve, poor fit]
NC(=O)c1ccc([N+](=O)[O-])cc1	inconclusive [activator, full curve, poor fit]
COC(=O)[C@@]1(Cc2ccc(OC)cc2)[C@H]2c3cc(C(=O)N4CCCC4)n(CCc4ccc(OC)c(Br)c4)c3C[C@H]2CN1C(=O)c1ccccc1	inconclusive [inhibitor, partial curve]
c1ccc(COCc2ccccc2)cc1	inconclusive [activator, full curve]
Cc1c(N)cccc1Cl	inconclusive [activator, full curve, poor fit]
CC(C)NC[C@@H](O)COc1cccc2[nH]ccc12	inconclusive [activator, full curve, poor fit]
CCCCC(C=O)CC (configuration not stated)	inactive
C[C@@H]1C[C@@]2(C)Oc3ccccc3[C@H]3OC[C@]1(COC(=O)Nc1ccccc1)[C@@H](C)[C@@H]32	inconclusive [activator, full curve, poor fit]
COC(=O)[C@@]1(Cc2ccccc2)[C@H]2c3cc(C(=O)N(C)C)n(Cc4ccc(OC)c(OC)c4)c3C[C@H]2CN1C(=O)c1ccccc1	inactive
